The results in this text go back to paper PMC12820563.

The list shows a part of the results. The list includes weakly bound sequences.

This experiment concerns the target T1, MBP-FoxP3dN (UniProt Q99JB6).
T1 sequence: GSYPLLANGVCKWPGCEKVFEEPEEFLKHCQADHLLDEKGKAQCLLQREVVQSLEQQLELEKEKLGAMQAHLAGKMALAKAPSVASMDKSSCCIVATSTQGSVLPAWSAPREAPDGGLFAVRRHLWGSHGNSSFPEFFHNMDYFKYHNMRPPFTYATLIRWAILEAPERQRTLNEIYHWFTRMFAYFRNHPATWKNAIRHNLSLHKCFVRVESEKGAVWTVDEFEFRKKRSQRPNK
Nature of the experiment: PD-seq (MBP pull-down with sequencing). As to conditions: 20 mM Tris-HCl pH 7.5, 100 mM NaCl, 1.5 mM MgCl2, 0.4 uM protein, 0.1 uM dsDNA library, 30 min, room temperature, amylose pull-down; high values mean tight binding; double strand, one strand shown.
As to “GATGATTGTTCTCCCAGCTGATGAATTTTTGTGATCGAGTAAACAAATTTTCCTAATCTTTCTGTTCAAGCGCCATCTAC”, the binding signal (RPM ratio (pull-down/input)) turned out to be 0.656. In the case of “GATGATTGTTCTCCCAGCTGATGAATTGAGTCCGTCGAGTAAACAAATTTTCCTAATCTTTCTGTTCAAGCGCCATCTAC”, the binding signal (RPM ratio (pull-down/input)) was 0.293. The value for “GATGATTGTTCTCCCAGCTGATGAATTGTACTAATCGAGTAAACAAATTTTCCTAATCTTTCTGTTCAAGCGCCATCTAC” was 0.452; that for “GATGATTGTTCTCCCAGCTGATGAATTATCTTTTTCGAGTAAACAAATTTTCCTAATCTTTCTGTTCAAGCGCCATCTAC” was 0.469; that for “GATGATTGTTCTCCCAGCTGATGAATTAAACACTTCGAGTAAACAAATTTTCCTAATCTTTCTGTTCAAGCGCCATCTAC” was 0.614. Under “GATGATTGTTCTCCCAGCTGATGAATTAACGATCTCGAGTAAACAAATTTTCCTAATCTTTCTGTTCAAGCGCCATCTAC” stands 0.332; under “GATGATTGTTCTCCCAGCTGATGAATTTATACCTTCGAGTAAACAAATTTTCCTAATCTTTCTGTTCAAGCGCCATCTAC”, 0.85. For “GATGATTGTTCTCCCAGCTGATGAATTCAGTACTTCGAGTAAACAAATTTTCCTAATCTTTCTGTTCAAGCGCCATCTAC”, the binding signal (RPM ratio (pull-down/input)) worked out at 0.481. For the sequence “GATGATTGTTCTCCCAGCTGATGAATTCGTGTGATCGAGTAAACAAATTTTCCTAATCTTTCTGTTCAAGCGCCATCTAC”, the binding signal (RPM ratio (pull-down/input)) came to 0.696. Under “GATGATTGTTCTCCCAGCTGATGAATTGCCTGTCTCGAGTAAACAAATTTTCCTAATCTTTCTGTTCAAGCGCCATCTAC” stands 0.696. As to “GATGATTGTTCTCCCAGCTGATGAATTGCGTGCGTCGAGTAAACAAATTTTCCTAATCTTTCTGTTCAAGCGCCATCTAC”, the binding signal (RPM ratio (pull-down/input)) was 1.78.

On to “GATGATTGTTCTCCCAGCTGATGAATTTAAACCTTCGAGTAAACAAATTTTCCTAATCTTTCTGTTCAAGCGCCATCTAC”, for which the binding signal (RPM ratio (pull-down/input)) was found to be 0.278.

Regarding “GATGATTGTTCTCCCAGCTGATGAATTCTGCAAATCGAGTAAACAAATTTTCCTAATCTTTCTGTTCAAGCGCCATCTAC”, the binding signal (RPM ratio (pull-down/input)) was 0.696.

For “GATGATTGTTCTCCCAGCTGATGAATTGATACATTCGAGTAAACAAATTTTCCTAATCTTTCTGTTCAAGCGCCATCTAC”, the binding signal (RPM ratio (pull-down/input)) was 1.84.

Regarding “GATGATTGTTCTCCCAGCTGATGAATTGACGGCTTCGAGTAAACAAATTTTCCTAATCTTTCTGTTCAAGCGCCATCTAC”, the binding signal (RPM ratio (pull-down/input)) is 0.423. “GATGATTGTTCTCCCAGCTGATGAATTGCGCTAATCGAGTAAACAAATTTTCCTAATCTTTCTGTTCAAGCGCCATCTAC”: the binding signal (RPM ratio (pull-down/input)) was determined as 0.792.

On to “GATGATTGTTCTCCCAGCTGATGAATTCATGCCCTCGAGTAAACAAATTTTCCTAATCTTTCTGTTCAAGCGCCATCTAC”, for which the binding signal (RPM ratio (pull-down/input)) is 0.665. The value for “GATGATTGTTCTCCCAGCTGATGAATTTGGACGATCGAGTAAACAAATTTTCCTAATCTTTCTGTTCAAGCGCCATCTAC” was 0.254.

In the case of “GATGATTGTTCTCCCAGCTGATGAATTAATGATCTCGAGTAAACAAATTTTCCTAATCTTTCTGTTCAAGCGCCATCTAC”, the binding signal (RPM ratio (pull-down/input)) was 0.767. Under “GATGATTGTTCTCCCAGCTGATGAATTGAGCTATTCGAGTAAACAAATTTTCCTAATCTTTCTGTTCAAGCGCCATCTAC” stands 1.57. The value for “GATGATTGTTCTCCCAGCTGATGAATTTTACAAGTCGAGTAAACAAATTTTCCTAATCTTTCTGTTCAAGCGCCATCTAC” was 0.192; that for “GATGATTGTTCTCCCAGCTGATGAATTGTAATCTTCGAGTAAACAAATTTTCCTAATCTTTCTGTTCAAGCGCCATCTAC” was 0.84; that for “GATGATTGTTCTCCCAGCTGATGAATTCCCTCGCTCGAGTAAACAAATTTTCCTAATCTTTCTGTTCAAGCGCCATCTAC” was 0.236. As for “GATGATTGTTCTCCCAGCTGATGAATTTTTTGAGTCGAGTAAACAAATTTTCCTAATCTTTCTGTTCAAGCGCCATCTAC”, the binding signal (RPM ratio (pull-down/input)) was determined as 0.237. Under “GATGATTGTTCTCCCAGCTGATGAATTTATAGTATCGAGTAAACAAATTTTCCTAATCTTTCTGTTCAAGCGCCATCTAC” stands 2.27.

As to “GATGATTGTTCTCCCAGCTGATGAATTGAGTTAGTCGAGTAAACAAATTTTCCTAATCTTTCTGTTCAAGCGCCATCTAC”, the binding signal (RPM ratio (pull-down/input)) amounted to 1.26. As for “GATGATTGTTCTCCCAGCTGATGAATTCTAATACTCGAGTAAACAAATTTTCCTAATCTTTCTGTTCAAGCGCCATCTAC”, the binding signal (RPM ratio (pull-down/input)) is 0.43.

“GATGATTGTTCTCCCAGCTGATGAATTGGTGCATTCGAGTAAACAAATTTTCCTAATCTTTCTGTTCAAGCGCCATCTAC”: the binding signal (RPM ratio (pull-down/input)) was found to be 6.97.

Regarding “GATGATTGTTCTCCCAGCTGATGAATTTTATTTGTCGAGTAAACAAATTTTCCTAATCTTTCTGTTCAAGCGCCATCTAC”, the binding signal (RPM ratio (pull-down/input)) was determined as 6.21. The value for “GATGATTGTTCTCCCAGCTGATGAATTGGGCTCTTCGAGTAAACAAATTTTCCTAATCTTTCTGTTCAAGCGCCATCTAC” was 0.461; that for “GATGATTGTTCTCCCAGCTGATGAATTGGCAGCGTCGAGTAAACAAATTTTCCTAATCTTTCTGTTCAAGCGCCATCTAC” was 0.509; that for “GATGATTGTTCTCCCAGCTGATGAATTCCGATCCTCGAGTAAACAAATTTTCCTAATCTTTCTGTTCAAGCGCCATCTAC” was 0.416.
